Measured values published in patent publication US20050043236A1 (published 2005).

Columns and labels:
[1] = target: T1, human VEGF165 (human, UniProt P15692-4 27-191); experiment: BIAcore, half-life of dissociation
T1 construct: also called hVEGF165
T1 sequence (looked up): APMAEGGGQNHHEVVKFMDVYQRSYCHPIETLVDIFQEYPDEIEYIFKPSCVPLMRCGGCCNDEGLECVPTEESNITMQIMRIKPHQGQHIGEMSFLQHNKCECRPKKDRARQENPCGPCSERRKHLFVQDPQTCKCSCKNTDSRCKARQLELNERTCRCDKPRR

[2] = target: T1, human VEGF165; experiment: BIAcore, as described in WO/0075319
[3] = target: T1, human VEGF165; experiment: kinetic dissociation from hVEGF165, as described in WO/0075319
[4] = target: T1, human VEGF165; experiment: affinity determination for human VEGF-165 (method not named in Example 7)
[5] = target: T1, human VEGF165; experiment: half-life of dissociation of the trap-hVEGF165 complex, as described in WO/0075319

B1: VEGFR1R2.FcΔC1(a) (Fc fusion)
chain: SDTGRPFVEMYSEIPEIIHMTEGRELVIPCRVTSPNITVTLKKFPLDTLIPDGKRIIWDSRKGFIISNATYKEIGLLTCEATVNGHLYKTNYLTHRQTNTIIDVVLSPSHGIELSVGEKLVLNCTARTELNVGIDFNWEYPSSKHQHKKLVNRDLKTQSGSEMKKFLSTLTIDGVTRSDQGLYTCAASSGLMTKKNSTFVRVHEK[omitted - human IgG1 Fc]
notes: also called parent VEGF trap; VEGF trap
T1/2 [1]: 4.53 h | koff [2]: 4.23e-05 s⁻¹ | koff [3]: 5.51e-05 s⁻¹ | Kd [4]: 0.655 pM | koff [4]: 1.79e-05 s⁻¹ | kon [4]: 2.73e+07 M⁻¹ s⁻¹ | T1/2 [5]: 3.5 h
